Experimental data: the supplement of paper PMC10126150
Sequences with one replicate were seen in a single cluster, so their values are uncertain.

System: ATP
Test: switch fluorescence ratio, 500 uM ATP over buffer (Cy3 cluster intensity, sum of 5 cycles each) (fold (ratio)); higher = stronger signal-on switching upon ATP binding; sequences stand for … in TCGTCGGCAGCGTCAGATGTGTATAAGAGACAGTTTTTTTTTTTTTTTTTTTTTTTTT…TC
Conditions: aptamer strand: ATP DNA aptamer (quencher-CACCTGGGGGAGTATTGCGGAGGAAGG + anchor), 100 nM annealed; ATP concentration: 500 uM; one replicate
Procedure, shortened: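 Five buffer/ATP imaging cycles were run on Cy3-labelled switching-strand clusters on a modified Illumina MiSeq flow-cell, with NaOH stripping and re-annealing between cycles. In each cycle, clusters annealed to 100 nM quencher-labelled ATP aptamer were imaged in selection buffer, then after 15 min with 500 uM ATP at 22 °C. Per cluster, the fluorescence ratio is summed target-cycle over summed buffer-cycle Cy3 intensity, averaged per switch-domain sequence. Only clusters within 100-1000 RFU were kept.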
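Also: ATP exposure 15 min at 22 °C before imaging.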

Sequence	switch fluorescence ratio
ACATGGTGGT	1.09
TCAAATAAAG	0.997
GTAGCTTCGG	0.994
GCGATTAGGG	0.98
AGAAGCGGTA	1.02
TATTCGTGTC	1.01
ATAAACGCTG	1.04
CGTTTGATTC	0.949
CTTCGGGTCC	1.02
ATTGGCAAGT	1.02
CCCCGGCTCA	1.3
GTTCACGGGG	1.02
GGCTATGACC	1.02
CTTAATAGCG	0.949
CAGGTCCAAA	1.07
TACTCAAGCA	1.47
TGGCATTGGA	0.968
GGTCGAGTTT	0.939
TCTGAACCCT	1.06
TTCAAAAGGA	0.941
AGAGATTTAG	1.02
TTGGTGATG	1.02
GAGGACTGCT	0.982
CATCCAATTA	1.14
GTGAGTACTA	1
TAGCCCGTCA	1.06

Sequence	switch fluorescence ratio
ACATGCGGT	1.03
CGTGCAGACT	1
TCGGCCTTAC	2.19
TTGGTTGTCT	0.997
TAGGTTGCAG	0.971
CTTGGTTACC	1.05
TCCGGTCCTT	1.04
CTTATTAAG	0.98
AGTTTATCCG	0.995
GGTAGCAGGC	0.791
GTAGGTGTCG	0.999
TCTAATTTGT	1.04
TCCATGACGT	0.976
ACATTAGGCC	1.03
GCATACCTAA	1.01
AATAGGTATG	1.06
GTAAATATAA	1.01
GATTTCAGTA	0.98
CTTTGAAAAG	0.99
CCACATTCGG	0.992
ATGGTAATAC	1.61
GCCATGCTGG	1.04
AAAGCATAAT	0.989
GGGCTAGCCT	1.04
CCAGAAGGGC	1.07
GAGGGGGTAA	1.04

Sequence	switch fluorescence ratio
CATGAATCTG	1.07
CAGGTTCAGT	0.991
CACTAGGCC	1.01
AGAGCAGTC	0.97
ACAATCGGGT	0.963
TAGGCTCACA	1.04
AAGGGAGCGT	0.984
GACTGTTCAT	1.01
ACAGCCAAGC	1
TTCTTACTC	1.15
TTTTACTGG	0.993
CGGTAGTTTG	0.96
GTTGGGTGAA	0.992
ACTTGGATTT	1.02
AGGCCCCTAA	1.02
AATAGCTCTG	0.957
ACCGTAGCTG	1.25
ACGTTGTAGG	1.03
AAATAGATAT	0.959
CAATTGGAGA	0.952
GGTATCGACT	0.981
CTCCTGCGCC	4.23
CACAATTTAG	0.988
TTTGCGGTAG	1.03
GGACCCCGGC	1.01
CTTCTATTGA	1.01

Sequence	switch fluorescence ratio
TTCCTTATCC	1.16
TCTCATAGAG	1.03
ATGAAGCGTA	0.956
AATATATGTG	1.02
GGCAAGGGAT	0.993
GGGGGGTCA	1
TAGACATTAC	1.41
GATAGTGTAA	0.961
AACAATTACA	1.04
TTAAATTGG	1.01
TAGGGTATCG	0.928
GAATACATCC	1.06
TGGGGTAATT	1
CTCTTCCTAC	2.08
CTGAATCAGA	1.03
GGATATATCA	1.03
TTCTATACGT	1.11
GGTTCCACTT	0.993
TGTTGAAACT	1.05
GTCGGTATGG	1.09
TCAGTCATCC	1.09
GTCACCCCTG	1.05
TTTTATATGA	1.02
AAGCTATATT	1.06
TTTGTCAAAT	1.04
AAGTATACAG	1.05

Sequence	switch fluorescence ratio
GAAATTGTAG	0.974
ATCTAGAATA	1.02
GGGCCCACTC	1.04
CGCTGCGTCG	0.975
GGGTAACGCG	1.05
GCACTGAAAT	1.01
TAACAGGTCG	0.979
TGGGCCTAGA	0.986
GACTTGTTAT	0.99
TACCTGTGTG	0.966
GGGCTTAATT	0.997
TACGTTTTTA	1.01
ACGTAGTCGA	1.03
TTTGACCCTT	1.08
TAGCGTTCGG	0.987
TGCCGGGTGC	1.06
AGAAGTATTG	0.989
GGAATTTAGT	1.03
GTGCACCTAA	1
TTGACCGAAG	0.988
CTTTAGATTG	1.01
CTGCTTACCC	1.07
GGTGAGGACG	0.949
AAAACGGGGG	1.01
CCGCTCGTTT	1.48
GGTTTGGCCC	1.01

Sequence	switch fluorescence ratio
CGTAGCTGTT	1.04
CGGCTTTGGC	0.941
AGTTACCCCG	1.04
GAGCCGATAT	1.01
TTTTGGATC	0.999
TGCCCACTGC	0.922
ACGTAATCTC	1.83
TGATAGC	1
TCAACCCTGC	1.07
TCTAAATATT	0.979
TAGGGTCG	1.01
GGAGTGATAT	1.87
GACGAGAGAG	1.01
TGTGCGGTCC	1.69
ATAGTTACGA	0.993
ATTAGTGGTA	1.01
TCTAAATGAT	1.01
ATGTTAAGGC	0.961
TCAACGATGA	1.01
CACGATAAAC	1.1
CCGAGTTGC	2.11
AATTTGTCTT	1.01
ACTGGCGGCC	0.962
GCTCGGGATC	1.09
CGATGAGGAC	0.937
GAAATATTCT	1.01

Sequence	switch fluorescence ratio
TCAGCTCCTA	1.02
TAAGAGATGG	0.988
ATTGTGATGC	1.02
ACTCCTAGGC	1.48
CTAGTCGGGT	1.04
ACGCTATTAA	1.25
CCACGAGTTT	0.99
GGGTACGAC	0.971
CCGAAAAGG	1.08
GGTGTCCTTT	1.01
ATGTCTATCG	0.996
GTCCGTTAGG	0.976
TTCCGCAAAC	1.48
TCCGGAACAT	1.38
AGCAATTAGT	1.19
CGTTATTAGT	0.997
CGCAGAATTT	1.04
TACGTGAGTT	1
TCCATAGGC	1.12
TCTCTGATT	1.03
CGTGTCGAGT	0.948
TCCCCGTGTT	1.07
CCTGTGTGAG	0.995
TTAAGTTGAC	1.03
AGTCCGGCCG	0.983
CGCCCTAGTA	1.03

Sequence	switch fluorescence ratio
GGAAGCCTGT	1.03
ATGCCGTAGG	1.02
TGAAGATGGT	1.01
TGAACGTGTC	0.96
GATGTCACGC	1.05
GGGATGAGAA	0.999
GCGCTCTATG	0.997
TTCTCTTCT	0.974
GGCGTTTCTG	0.982
GTCGCAAGCT	1.32
TGCTACATTT	1.03
GCCGGTTGTT	1.01
CCTTCAGCG	1.41
TCAATTAGCA	0.988
AGATAAGAA	0.966
TGTGCTTAAC	0.989
CTGTGCAGTA	1.2
GTTGAAATTG	1.01
TACCCTTTA	1.01
